The values that follow come from ChEMBL document CHEMBL4888484, “Replenishing the malaria drug discovery pipeline: Screening and hit evaluation of the MMV Hit Generation Library 1 (HGL1) against asexual blood stage Plasmodium falciparum ,using a nano luciferase reporter read-out” (2022).

The campaign covered roughly 150,000 compounds. About 540 (0.36%) showed an effect of 50% or more. This is one part of the list.

The assay deals with Plasmodium falciparum. Kind of assay: Primary screen in NF54 nanoGlo assay, in single point, at 2uM, 72h; a lower Z score goes with more inhibition. In kind it is functional, Erythrocyte. The settings on record: timepoint 72 hour.
As for `COc1cccc([C@H]2C[C@H](N(C)C(=O)CCCC(F)(F)F)C2)c1`, the “% Inhibition” value was 5% and the Z score was -0.72.
As for `CN1CCN(C(=O)[C@@]2(C)CC2(Cl)Cl)CC1`, the “% Inhibition” value is recorded as -15% and the Z score is given as 1.33.
For `Cc1cncc(NC(=O)[C@H]2C[C@@H]2C(F)F)c1`, the “% Inhibition” value is on record as -15% and the Z score is recorded as 1.83.
On to `CCc1cc(CN(C)CC(=O)N[C@@H](C)c2ccc(C)cc2)on1`, for which the “% Inhibition” value was -7% and the Z score worked out at 1.34.
Consider `COc1ccccc1CN1C(=O)c2c3c(nn2C[C@@]1(C)C(=O)NCc1ccc(C)cc1)CCCC3`, for which the “% Inhibition” value is reported as -6% and the Z score stood at 0.63.
For `CC1(NS(=O)(=O)Cc2ccccc2)CCOC1C1CC1` (stereo not given), the “% Inhibition” value is -10% and the Z score turned out to be 1.2.
Consider `COc1ccc(-c2ncccc2C(=O)N2CCCC2)cc1C`, for which the “% Inhibition” value was -3% and the Z score is listed as 0.45.
In the case of `O=S(=O)(Nc1ccncc1)c1ccc(Cl)c2ncccc12`, the “% Inhibition” value is reported as -3% and the Z score stood at 0.56.
Turning to `CCCOCC(=O)NCc1cccc(C(=O)N(C)C)c1`, the “% Inhibition” value is on record as 4% and the Z score is -0.87.
In the case of `Cc1nnc(-c2ccccc2-c2ccc(C(=O)O)s2)o1`, the “% Inhibition” value is given as -2% and the Z score is 0.33.
Consider `CCc1ncc(C(=O)N2CCCCC2)c(-c2ccc(OC)cc2)n1`, for which the “% Inhibition” value is recorded as -13% and the Z score is recorded as 1.46.
Regarding `O=C(O)C1(Oc2ccc3ncccc3c2)CCN(CC2CCCCC2)CC1`, the “% Inhibition” value is listed as 0% and the Z score was -0.01.
In the same order, the values of `N#Cc1ccc(C=Cc2coc(-c3ccccc3)n2)nc1` are 0% and -0.05.
As for `CC(=O)N1CCN(c2nc(N3CCOCC3)nc(-n3ccnc3)n2)CC1`, the “% Inhibition” value came out at 4% and the Z score is given as -0.79.
For the compound `Cc1n[nH]c(=O)nc1NC1CCCCCC1`, the “% Inhibition” value is given as -9% and the Z score was 1.27.
On to `CCN([C@@H](C)CS(C)(=O)=O)S(=O)(=O)c1cccnc1`, for which the “% Inhibition” value is reported as -2% and the Z score came out at 0.32.
In the same order, the values of `c1cncc(CN[C@H]2CCCc3cn(C4CCCC4)nc32)c1` are -4% and 0.79.
Take `Cc1cc(CNc2ccn(CCO)n2)c2c(n1)CCCC2`: the “% Inhibition” value is -11% and the Z score is 1.14.
Turning to `COc1cc(CN2CC[C@H](NC(=O)c3ccc4[nH]c(=O)[nH]c4n3)C2)cc(OC)c1`, the “% Inhibition” value is given as -9% and the Z score was 1.31.
With `Cc1ccc(Cc2ccccn2)cc1NC(=O)N1CCC[C@@H]1CCO`, the “% Inhibition” value is on record as -4% and the Z score was determined as 0.58.
Turning to `C#CCOC(=O)c1cn(CC(=O)N2CCCC2)nn1`, the “% Inhibition” value is recorded as -5% and the Z score is 0.64.
As to `Cc1nc(CCNC(=O)NC2CC2)cs1`, the “% Inhibition” value was -4% and the Z score came to 0.67.
With `CC(C)(Cc1ccccc1)C(=O)N1CCC2(CC1)C[C@H](O)CNC2=O`, the “% Inhibition” value is given as -5% and the Z score was found to be 0.68.
Take `Cc1ccccc1[C@@H](O)C1CCN(C(=O)Cc2cnn(C)c2C)CC1`: the “% Inhibition” value was 4% and the Z score is reported as -0.48.
Consider `COCc1c(C(=O)NC2CCCCCC2)c(=O)cc(C)n1CCc1ccccc1Cl`, for which the “% Inhibition” value is recorded as -4% and the Z score came to 0.44.
Turning to `CCc1cnc(CN2CCC[C@H]2c2noc(CC)n2)o1`, the “% Inhibition” value is reported as -10% and the Z score is listed as 1.41.
`CN(Cc1ccoc1)c1nc(C2CC2)nc2c1CCNCC2`: the “% Inhibition” value amounted to 11% and the Z score is on record as -1.49.
With `COCC1(c2nc(C)nn2-c2ccc(F)cc2)CCC1`, the “% Inhibition” value came to 3% and the Z score is -0.55.
Regarding `CC(C)(C#N)C(=O)NCc1ccc(OC(F)F)cc1OC(F)F`, the “% Inhibition” value is -6% and the Z score is given as 0.57.
As to `COc1ccc(OC)c(-c2csc(NC(=O)[C@H]3CCCN(C(=O)c4ccoc4)C3)n2)c1`, the “% Inhibition” value turned out to be 6% and the Z score is -0.79.
For the compound `CNC(=O)[C@@]1(C)CCN(S(=O)(=O)c2cccc3c2OC(F)(F)O3)C1`, the “% Inhibition” value is -9% and the Z score worked out at 1.73.
Consider `Cc1csc(CNC(=O)c2cccc(-c3cc(N4CCCC4)cnn3)c2)n1`, for which the “% Inhibition” value was 4% and the Z score is recorded as -0.67.
Take `Cc1cccc(N2C(=O)C3CN=NC3(C)C2=O)c1` (stereo not given): the “% Inhibition” value was -11% and the Z score came to 1.65.
In the case of `Cc1ccc(C)c(NC(=O)[C@H]2CC(=O)N(CCc3c[nH]c4ccc(F)cc34)C2)c1`, the “% Inhibition” value came to 1% and the Z score was -0.26.
As for `Cc1cnc(NC(=O)CNC(=O)C(C)(C)C)s1`, the “% Inhibition” value was -2% and the Z score is listed as 0.2.
Turning to `COC[C@H]1[C@@H](NC(=O)c2ccc(N(C)C)cc2)[C@H]2CCO[C@H]21`, the “% Inhibition” value is given as -15% and the Z score amounted to 2.99.
On to `COc1ccc(C(=O)N2CCCCCNC(=O)[C@@H]3CCC[C@@H]32)cc1F`, for which the “% Inhibition” value is on record as -18% and the Z score was found to be 2.37.
Turning to `C[C@]1(NS(=O)(=O)c2ccc(Br)cc2F)CCOC1`, the “% Inhibition” value is reported as -3% and the Z score was 0.56.
In the same order, the values of `Cc1nc(C)c(C(=O)N[C@@H](C)CC(=O)c2ccc(F)cc2)o1` are 6% and -0.74.
Consider `CC[C@@H]1Oc2ccc(S(=O)(=O)N3CCN(C(=O)c4ccc(C)c(C)c4)CC3)cc2NC1=O`, for which the “% Inhibition” value is reported as -1% and the Z score stood at 0.12.
Regarding `CN1CCCN(S(=O)(=O)c2cccnc2)c2ccc(F)cc21`, the “% Inhibition” value is recorded as -12% and the Z score is recorded as 2.2.
In the same order, the values of `COC(=O)c1ccc(C(=O)N2CCC[C@H](Oc3ccncc3)C2)cc1` are 15% and -2.11.
For `Cc1nc(CCC(=O)Nc2ccc(NC(=O)NC(C)C)cc2)cs1`, the “% Inhibition” value is recorded as -12% and the Z score worked out at 1.51.
In the same order, the values of `COC(CN(C)Cc1cccc(F)c1)OC` are 4% and -0.57.
Consider `O=C(Nc1ccc2c(c1)OCCO2)C1CN(S(=O)(=O)C2CC2)C1`, for which the “% Inhibition” value is -12% and the Z score came to 1.79.
In the same order, the values of `CC[C@@H](COC)NC(=O)Nc1snc(C)c1Cl` are -5% and 0.79.
`Cc1ccc(CN(C)C(=O)C2CC2c2ccc3c(c2)OCCO3)o1` (stereo not given): the “% Inhibition” value is -10% and the Z score was 1.41.
Consider `COc1ccccc1[C@H]1NC(=O)c2[nH]nc(C)c21`, for which the “% Inhibition” value is -3% and the Z score is recorded as 0.39.
For `O=C(CN1CCCc2nc(-c3ccncc3)ncc2C1=O)NCc1ccccn1`, the “% Inhibition” value is 1% and the Z score is reported as -0.14.
On to `Cc1ccc(-c2noc(CCNC(=O)c3ccccc3)n2)cc1`, for which the “% Inhibition” value is given as 13% and the Z score is given as -1.55.
In the same order, the values of `Cc1ccc(C)c(-n2nc(C)nc2CCCn2cncn2)c1` are -16% and 2.17.
Consider `Cn1cc(C2=CCCN(S(=O)(=O)c3ccc4c(c3)CCO4)C2)cn1`, for which the “% Inhibition” value is -16% and the Z score was found to be 2.09.
As to `Cc1ccc(S(=O)(=O)N2CC3(CCC3(F)F)C2)c(F)c1`, the “% Inhibition” value was -11% and the Z score stood at 1.37.
Turning to `CC(C)(C)c1cnc(CNc2cccc3c2OCCO3)o1`, the “% Inhibition” value is reported as -16% and the Z score is reported as 2.53.
Regarding `COC[C@H]1CCCN1[C@@H]1[C@H](O)[C@H](CO)O[C@@H]1CNC(=O)c1ccc(F)c(Cl)c1`, the “% Inhibition” value came out at 9% and the Z score is listed as -1.04.

One may read the % Inhibition as the drop in the measured response relative to a control, in per cent.
